From paper PMC12136788
The other results are listed elsewhere or left out.

T1: UNK ZnF1-3 (human, UniProt Q9C0B0 31-174)
T1 sequence: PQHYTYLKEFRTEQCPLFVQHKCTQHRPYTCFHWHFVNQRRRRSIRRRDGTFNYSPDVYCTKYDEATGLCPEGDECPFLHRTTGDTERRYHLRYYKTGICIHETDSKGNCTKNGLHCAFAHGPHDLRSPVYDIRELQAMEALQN

B1: 155312183_155314165_1929_CDS_ENSMUSG00000042699_ENSMUST00000042141|mouse|control|control (ssRNA)
RNA: GGGAGUUCUACAGUCCGACGAUCUAGGUUGCAAUUUGCAUCAUCAUCUUCACCACCAUCAUCCUCCUUAUCCUUCUUUUUCUUGUCCUUUGGAGGAGGAAUGAAUUGAGUCAUCUGAAUGCAGUCUUCCAGAAAAUACUCUUGCAACAGAGGAUUGAGCAUCA
B2: chr2:119558892:119558893:+_ENSMUSG00000027304_ENSMUST00000028767|mus_hu|FALSE|FALSE (ssRNA)
RNA: GGGAGUUCUACAGUCCGACGAUCAGAUUCCCAGCUCCAUGGUAAUACUGAAUGCGUGCAGAGUGGCCAAUGAACUGCGCGGUUAAAAAAACAAAAGGCAAACACAAAUCUAAAGACAUGGAUAAAGCCCAAGAGAGCCCAGGCCAACAGAGGAUUGAGCAUCA
B3: chr18:50337633:50337634:+_ENSMUSG00000024507_ENSMUST00000025385|mus_mus|FALSE|FALSE (ssRNA)
RNA: GGGAGUUCUACAGUCCGACGAUCAUACACUGGUUUGGCAAAACGAACCUUAAUCGCCUUGAAUCUUGAUACAUCAUUAUCUGCAAACUGCUGUAAAACAUGCCUUGCAGAAAAUCCAAAGGUACAUAGUCCAUGUAAUAUGGGCAACAGAGGAUUGAGCAUCA
B4: chr15:76910149:76910150:-_ENSMUSG00000033565_ENSMUST00000166610|mus_hu|FALSE|FALSE (ssRNA)
RNA: GGGAGUUCUACAGUCCGACGAUCACAAGAAAAACAAUUCAUAUCCCUUAGGGAAAAAAGAGGAUCAAUUCAUCACUCAAUAUAUAAUACAGCCAAAAUGAGCUGCCAAAACAAGCACACACACAAAUACUGUGAACAGAAAAACAACAGAGGAUUGAGCAUCA
B5: chr2:4533090:4533091:+_ENSMUSG00000026657_ENSMUST00000075767|mus_hu|FALSE|FALSE (ssRNA)
RNA: GGGAGUUCUACAGUCCGACGAUCCGACAGUUAAACACUGAAUGGAUCGCAAUGUGCUUUUCCCUUGGUUUCCCAUAAAAACGAAAAUGAAACACCUUGUGCAAAAAAAUAGGAUACGCUUUUACUGGUUGGUUUAAUGAGAGACAACAGAGGAUUGAGCAUCA
B6: 17233736_17255093_132_5pUTR_ENSMUSG00000050240_ENSMUST00000090190|mouse|control|control (ssRNA)
RNA: GGGAGUUCUACAGUCCGACGAUCAGACUUCCUGAGGGUGCAUCAAAGCCUGGUUACCUCAGGUGCCUGCCAGAGGCCCCUCGUCUUGGGCGCCCGACCUGAGCUGCACGCGCCCGCCCUGUCCGCCCUCCGCCGGCCCCCGCUCAACAGAGGAUUGAGCAUCA
B7: chr1:138071448:138071449:+_ENSMUSG00000041642_ENSMUST00000075164|mus_mus|motif|central (ssRNA)
RNA: GGGAGUUCUACAGUCCGACGAUCGGUAUGCCGGCAUGGGCAGGUCCGGGGCAAUUGUCAGAGCUGCAAAGGAUAGAGAAGGCGGUCCCCUCAUCUGCAGAGCAAGCAGAGGGAAGGCCCCCACCCCCACCCCACCCCACCCCACAACAGAGGAUUGAGCAUCA
B8: chr2:191069868:191069869:-_ENSG00000198130_ENST00000359678|hu_mus|FALSE|FALSE (ssRNA)
RNA: GGGAGUUCUACAGUCCGACGAUCAGCUUGUAGGCUGCAUGAAAAUGGGCCUAGCCUCUGUGCUAUGAUGUGUUGACCUUUGCUCCAAAAUAAACUUUAGAAUUUCAAAUCACUGCUUCCCAGAGAUUUAAAGUAACUAUUCAACAACAGAGGAUUGAGCAUCA
B9: chr6:71561584:71561585:-_ENSMUSG00000053470_ENSMUST00000065509|mus_hu|motif|central (ssRNA)
RNA: GGGAGUUCUACAGUCCGACGAUCACAGCUUUCAUUAUCUACUUUUACUGAAGAUUCCUUUAAAUUCUGUGAUCGGCAAGCGGAAGCUGAAGGUUCUACCUUUUUUCCUGAACAGUUAUUAGGGCUAUCACUAUUGACACCUGCCAACAGAGGAUUGAGCAUCA
B10: 53397354_53399507_792_3pUTR_ENSMUSG00000032047_ENSMUST00000034547|mouse|control|control (ssRNA)
RNA: GGGAGUUCUACAGUCCGACGAUCCUUUCACCACCACAUCUGGUUUACCUUUCACUGAGAUGGUGAUGGGAGUAAUCUCACUGGCAAACUUCCCUGCGUCCCACGCUUCUUUACUUCUGGUGUAAGAGCUGAGAGCGUACGUAUCAACAGAGGAUUGAGCAUCA
B11: chr2:69673326:69673327:+_ENSMUSG00000042155_ENSMUST00000053087|mus_hu|FALSE|FALSE (ssRNA)
RNA: GGGAGUUCUACAGUCCGACGAUCAUCAGAAAUGCUAGGUAGUUUUAAACUUCAGUGAGUUAAAAAUAAUUAUUGUCUCUUUUUAAAAAAUGAAGAGUGUGGAAUAGAUGGUCUCACAGAUAACUAAUGGUGUAAAGGAGUUAACAACAGAGGAUUGAGCAUCA
B12: 102314616_102314736_7932_3pUTR_ENSG00000166135_ENST00000299163|human|control|control (ssRNA)
RNA: GGGAGUUCUACAGUCCGACGAUCGUCUCCCCUACUGAUCUGAGAGCACCACAUGGGGACGAACUAAUACAGUGCCUGGAACAGAAGUGUUCAACAAAUGGUAGCUAUUAACAUCCCACUCAUAUUUUUCUGAAUUUUGAUUGCCAACAGAGGAUUGAGCAUCA
B13: chr12:48362563:48362564:+_ENSG00000134291_ENST00000256686|hu_hu|hu_hu_hu_mus_False|48_108 (ssRNA)
RNA: GGGAGUUCUACAGUCCGACGAUCUCCGAAGGGUGAAUCGAUAGACCCUUGCGGGGGAAACUGUAAUCACUUUGUAUGGGGAAGGAAAAAAAAAGCCAAAAACUUUCCAAAAAGCGGGGGUGGGGUGAGGCGGGAGGGGGAGGUCAACAGAGGAUUGAGCAUCA
B14: chr7:141441981:141441982:+_ENSG00000106028_ENST00000265304|hu_mus|hu_hu_hu_mus_False|18_78 (ssRNA)
RNA: GGGAGUUCUACAGUCCGACGAUCCUCAUGUCUUACAAACUGACGAAAUACCUGUAAUACAGGUCUUCGAAACAUGGCUUCUGUUUUUCUUACAACCUAAUCUUUAGGCUUUUCCUACCUGACGAUCAGAAAAGAGAAAAAUGACAACAGAGGAUUGAGCAUCA

target: T1, UNK ZnF1-3; assay: nsRBNS (natural sequence RNA bind-n-seq); RBNS binding buffer (assumed for nsRBNS): 25 mM Tris pH 7.5, 150 mM KCl, 3 mM MgCl2, 0.01% Triton X-100, 500 ug/ml BSA, 20 U/ml SUPERase-In, 4 C; UNK is unkempt and MSI1 is Musashi-1; names of the RNAs are library labels; protein concentration not given here; high values mean tight binding

With B1 as the binder, how does the binding signal read?
The binding signal was 0.582 enrichment R.

With B2 as the binder, how does the binding signal read?
The binding signal was 2.82 enrichment R.

Which binding signal does the source give for B3 here?
The binding signal was 0.767 enrichment R.

How did the binding signal turn out when B4 was run?
The binding signal was 2.59 enrichment R.

Which binding signal does the source give for B5 here?
Its binding signal is 1.45 enrichment R.

With B6 as the binder, how does the binding signal read?
Its binding signal is 0.676 enrichment R.

Which binding signal does the source give for B7 here?
The binding signal was 1.41 enrichment R.

How did the binding signal turn out when B8 was run?
Its binding signal is 1.41 enrichment R.

For B9, which binding signal is on record?
The binding signal was 0.997 enrichment R.

With B10 as the binder, how does the binding signal read?
The binding signal was 0.47 enrichment R.

For B11, which binding signal is on record?
The binding signal was 1.75 enrichment R.

Which binding signal does the source give for B12 here?
The binding signal was 1.23 enrichment R.

For B13, which binding signal is on record?
Its binding signal is 2.74 enrichment R.

B14 was tested. Which binding signal did it give?
Its binding signal is 0.616 enrichment R.
